Results taken from the RNAGym collection of RNA variant scans (doi:10.7554/elife.90254).
The source gives no read counts; variants with many changes may rest on few reads.

B1: OR4K15 (parent)
chain: GUUAACGGUCAUAGGCCAUGGAAACUAGGAGCACCAUUUCGCUGCCAGUGAAGAAAUGAACAAAGAAAAUCUGGGCCAGGCAGGCAUCAAAAGAAAUAGUCUUGCGCUCAACCAGAAAGUCUGUAAUCAUUUUAAGGGUA

Variants of: B1
Test: self-cleavage, relative activity (ratio to wild type); higher = more cleavage; in vitro, sequencing; the parent is a self-cleaving ribozyme

Variant	self-cleavage
U19A A54G A68G A118G	0.37
A18G A63G U100C U102A	1.96
U124C U132C A140G	1.13
A66G A68G U87C U132A	1.46
A24G A33G U39C U49A	1.18
A11G U57C A110G	0.16
G48U A92G C128A	1.01
U3C U37C U43C	1.42
U2C U43C A118U	0.33
U9C A30G A47U	0.68
A27C U43C A89G	1.68
U9C U39A U122A	2.43
U2C A30U G44U A56G A117U	0.59
A11G U39C A78G G93U G106A	0.07
U19A A24G A89G A92G	1.18
A36U G84C A91G U127C U130C	0.06
A47U A64G A67G U132A A134G G138A	0.36
U2C A62G G83U A114G U120C U127A	0.07
U2C A96G U130C U132C	0.92
A13G U26G A55C G79A	0.08
G14U A33U A52G U103C	1.67
C16U A18U A27C U39C A117G	1.13
U2C G73A A96G U130C	0.09
U39C A60G A94G	2.31

Variant	self-cleavage
A13U A67G U108C A140G	0.01
C34U A78G G80C	0.05
A60G A89G A116U A117G	0.25
A51G U72C A118G	0.11
C6U A62U U72C U103A	0
A68G A96G A118G U127A	1.47
G29U A55G A86G A95G	2.51
A23G U37C U43A A86U	1.18
A11G A82U A95G	0.37
U12C A23G A55U G106A U122C	0.01
A60G A91G U102C A110C	0.48
A11U A22U A30G U70C	1.2
A47G A56G A116C	0.06
A27G G28U A89G A92G U97A	1.25
U37C U43A U72A U127C U132C	0.2
U37C U43A A54G U122A	1.92
A11G A86G A118G A126C U127A	0.49
A59G A86G A90G	0.39
A11G U57C A94U	0.94
U38C A54G A59G A67G A69G A117G U122A	0.51
A78U A89G A91C A110G	0.03
U2C C10U U38C C121U	2.12
U37G U38C A135U	1.36
U39C U49A A114U	0.03

Variant	self-cleavage
U2C U9C A24G A36U A55G U57C U100G	1.09
A33G U39C A92G U102C U108C U127A A135G	0.01
U3C G50U A110U	0.6
G50U A67G A90G	1.37
U70G A82G A96G A126G	0.12
U2C A55G A56G A82U A140G	0.1
A5G U39A A67G	1.58
A33U A60G U87G	0.25
A11G U37C A86U	1.05
U26C U49A A90G U102C	2.32
A64G U122C U131C	1.27
G15C A33G A96U	1.15
A54G A60G U100C A118G U120C	0.56
U12C U38C A52G U72A	0.36
A18U U72C A82G U139C	0.63
A36U A62G U108C	0.03
C35U U87C A110G	0.09
A11G U37C A66G U131C	1.38
A13G U19A A117G	0.8
G8A A56G A64G A86U U87C A116G U127A	0.46
A33G A52G U87A A118G	0.18
A92G U102C A114G A118G	1.06
A30G A92G A134G	1.18
U38C A52G U57C	0.55

Variant	self-cleavage
G53A A54G A60G	1.32
C10U A66G U103C	0.42
A18G A92G A140G	2.37
A36U U43A A64G U102C A116G	1.98
A27G A63G U70C A90G	1.12
A30U A54U A96G	2.15
A5G A51G A125G U131C	0.29
A5G C17U A30G A69G G138A	0.6
A18U A24C U43C A117G	2.09
A30G U39C C81U	0.4
A13G U39C A47G A54G	0.78
A24U A66G A67G A110G A118U	0.09
A5G U39C A94G A95G	1.45
G8A A23G U39C A90G U120C	0.18
A51U A66G A90G A91U A95G	2.89
A5U U19A U49A	0.64
U9A U19A A67G A111U	0.03
A52G A63G U108A	0.02
U2C A33G A55U A59G A69U	0.76
A54U U57A U131C	0.74
U37C C46U C61U A89U	2.06
A11U U70A U100C U130C	0.84
A59G A78G A94G A117G	0.28
A11G A59G A63G A90U A126U	0.52

Variant	self-cleavage
U9C A60G A68G U72C U130C	0.22
A51U A59G A86U A94G	1.48
G21A A51G A126G	0.84
A22G C34U A54G	1.11
U57C A66G A68G	0
A30U U57C A60G C128A	0.5
A18G A47U A111G	0.03
A11G U39C A62G	0.51
A5G A66G A78G A129U	0.19
U9C A23G A91G U133C	1.59
U57C A89G A114G U127G	0.3
A11U A47G G93A	0.75
U12C C61U U131C	1.22
A59U A66U A98G U131C	1.05
A13G U19C A69G C81U A92C A94G U103C U122C	0.02
U49C A54C A86G G137A	1.28
A24G U39C A89C	0.9
A52G A59G A62U A94G U97C	0.89
A47G U57A A67G U70C A89G C105U	0.03
A22G A62G A90U	1.45
A33C A78U A96U A117G	0.39
A60G A62G G137U	0.92
A33G U37C A86G U108C	0.02
U37C A69G A116G A126G	0.58

Variant	self-cleavage
C32U U43C A118G	2.16
A13U U37C U43C A66G U97C U130C	0.56
U2C A5G A36G A92U U97C U132C	0.28
U2A A60G U87C	0.76
A13G U38C A60G A96G	0.69
A52G A92U U133C	1.83
A11U A56G G73U A78G U120C	0.05
A51G A96G A116G	0.29
A11G G44C A67G U72A	0.23
G7C A52G A89G	1.78
A18U U70C U131C	0.29
A51G G74A C81G A82G	0.28
A24C A69G U108C A114G A116G U124A	0
A24G A67C U87C	1.34
A22G A30G A94G	1.29
A63G U87A U108C A125G	0
G79A U87A A129G	0.04
U43C A68G C85U	1.51
U49C A59G U87A	1.41
A66U U72A A95G C107A A114U A117G	0.01
A5G U38C G74U	0.33
U12A A18G A23U A78G U127C	0.13
G50A A54G A78U U102C U103A	0.02
A24G A56G A66G U130G	1.26

Variant	self-cleavage
A52G A56G A69U A86G	0.63
A56G G106U A116G	0
A5G A33G U103A	0.22
A110U A111G A126G	0
A11U A27G U37C	1.83
U3C A22G U38C A55G A59U A117G	2.84
A13U A91G A92G U124C	0.48
A52U A95G G123A	1.88
A30G U70C U108C	0.09
U9C C71U G138U	0.93
A5G C45A G53U U122A A134G	1.16
A66C A82U U132C	0.21
U49A A59G U102C	1.54
U87C U100C A114U U127C U131C	0.02
A69G A94G U122C A129G	1.53
A114G A117G G137U	0.62
U2A A24U A92U	0.45
A23U A62G A78G A111U	0.04
U37C A47U U49A U120A	0.88
A36U U102C A114U A116G	0.04
A5G G75A A86G A91G A117C	0.07
A22G U39C C107G	0.05
U2A U120C U127C	0.78
